According to patent US9138416B2, “Sustained-release nanoparticle compositions and methods using the same” (Board of Regents of the University of Nebraska by and …, priority 2004, dated 2015):

Key:
[1] = tested on: vascular smooth muscle cells; assay: Anti-proliferative effect, MTS assay; type: cell-based, Human; conditions: 490 nm
Experimental: Proliferation was measured using an MTS assay.
To monitor cell proliferation, cells were seeded at a 5,000 cell per well density in 96-well plates and allowed to attach for 24 hours. Different doses of rapamycin (1 ng/mL to 1,000 ng/mL) either loaded in nanoparticles or in solution (rapamycin dissolved in methanol was diluted in the medium) were used. The concentration of methanol in the medium was kept below 0.1% so that it had no effect on cell proliferation. Cells treated with empty nanoparticles or medium served as respective controls for drug-loaded nanoparticles or drug in solution. The medium in the wells was changed on day two and on every alternate day thereafter with no further addition of drug. Anti-proliferative activity of the drug was monitored for eight days of the study using an MTS assay ([…] 96® AQueous, Promega, Madison, Wis.). MTS assay reagent (20 μL/well) was added to each well and the plates were incubated for 3 hours at 37° C. in a cell culture incubator. Color intensity was measured at 490 nm using a microplate reader (Bio-Tek Instrument, Winooski, Vt.).

[2] = tested on: vascular smooth muscle cells; assay: Cell cycle analysis by flow cytometry of DNA; conditions: rapamycin 50 ng/mL; two days following treatment

CO[C@H]1C[C@@H]2CC[C@@H](C)[C@@](O)(O2)C(=O)C(=O)N2CCCC[C@H]2C(=O)O[C@H]([C@H](C)C[C@@H]2CC[C@@H](O)[C@H](OC)C2)CC(=O)[C@H](C)/C=C(\C)[C@@H](O)[C@@H](OC)C(=O)[C@H](C)C[C@H](C)/C=C/C=C/C=C/1C [Rapamycin in Solution, rapamycin]
Cell Viability (Absorbance ± SEM) ([1]; Day 2, rapamycin 1 ng/mL): 0.177 ± 0.017 | Cell Viability (Absorbance ± SEM) ([1]; Day 2, rapamycin 10 ng/mL): 0.199 ± 0.023 | Cell Viability (Absorbance ± SEM) ([1]; Day 2, rapamycin 100 ng/mL): 0.195 ± 0.014 | Cell Viability (Absorbance ± SEM) ([1]; Day 2, rapamycin 1000 ng/mL): 0.196 ± 0.011 | Cell Viability (Absorbance ± SEM) ([1]; Day 5, rapamycin 1 ng/mL): 0.363 ± 0.019 | Cell Viability (Absorbance ± SEM) ([1]; Day 5, rapamycin 10 ng/mL): 0.369 ± 0.036 | Cell Viability (Absorbance ± SEM) ([1]; Day 5, rapamycin 100 ng/mL): 0.325 ± 0.023 | Cell Viability (Absorbance ± SEM) ([1]; Day 5, rapamycin 1000 ng/mL): 0.354 ± 0.015 | Cell Viability (Absorbance ± SEM) ([1]; Day 8, rapamycin 1 ng/mL): 0.633 ± 0.019 | Cell Viability (Absorbance ± SEM) ([1]; Day 8, rapamycin 10 ng/mL): 0.688 ± 0.040 | Cell Viability (Absorbance ± SEM) ([1]; Day 8, rapamycin 100 ng/mL): 0.692 ± 0.040 | Cell Viability (Absorbance ± SEM) ([1]; Day 8, rapamycin 1000 ng/mL): 0.693 ± 0.058 | % Apoptosis [2]: 0.06% | percentage of cells in G0/G1 phase [2]: 73.48% | percentage of cells in G2/M [2]: 11.12% | percentage of cells in S phase [2]: 15.41%
